Assay results published in the supplement of paper PMC10126150.
Sequences with one replicate were seen in a single cluster, so their values are uncertain.

Test system: ATP
Assay: switch fluorescence ratio, 500 uM ATP over buffer (Cy3 cluster intensity, sum of 5 cycles each) (fold (ratio)); higher = stronger signal-on switching upon ATP binding; sequences stand for … in TCGTCGGCAGCGTCAGATGTGTATAAGAGACAGTTTTTTTTTTTTTTTTTTTTTTTTT…TC
Conditions: aptamer strand: ATP DNA aptamer (quencher-CACCTGGGGGAGTATTGCGGAGGAAGG + anchor), 100 nM annealed; ATP concentration: 500 uM; one replicate
Method in brief: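 Values give the fluorescence ratio for each switch-domain sequence, averaged from per-cluster ratios of summed target-cycle to summed buffer-cycle Cy3 intensity. The Cy3-labelled switching-strand clusters sat on a modified Illumina MiSeq flow-cell, were annealed to 100 nM quencher-labelled ATP aptamer, and were imaged in selection buffer, then after 15 min with 500 uM ATP at 22 °C. Five cycles ran with NaOH stripping and re-annealing between them, and clusters outside 100-1000 RFU were excluded.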
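Further: ATP exposure 15 min at 22 °C before imaging.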

Sequence	switch fluorescence ratio
GGCTAAAAAG	1.04
GGTGGTTTTC	1.01
ACTGTGAGTA	1.06
TACTCACAG	1.13
CAATCCCAG	1.04
GTAGTGTCTG	0.98
GAATGCGT	1.03
GGGTTTCGC	1.06
ATGGTAGCAG	1.04
CTCACGTAGT	1.05
ATATCAAAT	1.03
CGCAAATGCA	1.72
CGATCAATTG	1.01
TCAAACTTGT	0.96
ACAACAGTCC	1.04
TTATAGCGGA	0.976
TACGCTTCA	1.06
ATTCTATAGG	0.959
ACCTCATCA	1.07
AATAATCTCT	0.967
GAAAGAGCCG	1.92
ACTTAGTATG	0.999
ACTTTGAGGT	0.992
CATCCTGGAC	1.57
CCTTTATTTG	0.979
TGCTTTTCAT	0.982

Sequence	switch fluorescence ratio
CCAGCGCTA	3.68
CTGGCTCAAG	1.03
CCATTCTTAG	1.03
TAGCGACTGT	1.01
GAATACGCTG	1.11
TCGACTGGTA	0.992
TCTAAGCCCC	1.01
GGAATAGCTT	0.983
TTCGACGACT	1.11
ATTATGTGC	1
GACTGGCGAG	1.03
AGCGAAGAAC	1.02
GCGGGCGCGC	0.996
GCAACCTGGG	1.04
CAACCTCCTG	1.03
TCTACATAT	1.01
GTATCATCTT	1
TGAATCGC	1.05
AGCGGCATCG	0.967
GCATCTCCAT	1.09
GTCGGAAAGG	0.988
GTCATAAGAA	1
GGACTCGATA	1.05
TTATGCGCG	0.962
AACGGATGTT	0.999
ATAGGGAGAA	1.03

Sequence	switch fluorescence ratio
TTCTGCATGG	0.993
CAAACCCCGG	1.08
CGCTACTCAC	4.28
AGGAGAATGA	1.02
GCAGGCCAAC	1.18
TGGTACATAC	1.36
CCCTGGAGCT	1.19
AATCGTACCC	1.14
GGTCCGGTTG	1.01
AAGAATCACA	0.994
GGCAGTGGGT	1.02
CGCAGTGGA	0.985
GGATACGAGG	1.03
GACAGCGGAA	1.05
GCAATGACGG	1.17
ATATATACAC	1.02
TTTCCCAGAC	1.13
CAGATTGG	0.981
TCAGACTGG	1.03
TCGCTTTCAG	1.01
GTTGTAATGT	1
ATGCAATAAC	2.71
CGTACAGTGT	0.978
ATATTAATAG	0.949
TATGTGGTTC	0.991
ATTCGTACGG	0.966

Sequence	switch fluorescence ratio
TCCCCTAGTC	1.11
ATCTTTTTGA	1.02
TGGACTGATC	0.988
ATGGGGAGGG	1.03
CTGTTCGGTT	1
AGGGATATGC	1.01
TAACCATTGC	1.08
TCCGCTTTGT	1.03
CCCGTACACC	1.22
GTGCGGGTGT	1.07
ATTATACTC	1.1
CGTCGAGTGG	1.03
GCGGCCAGG	1.26
GGGCCAGTAC	1.17
AATTAATCGT	1
GGCCAAAACG	1.01
AAGATGGTAA	1.05
GCTTTCTCAG	1.14
TCGAGAGTCG	0.95
AAACGATAGT	0.975
GGCAATATAT	1.06
AGGCACGGAG	1.01
ACATGTTTG	0.986
TCTAACGCGA	1.82
TTTAATGGCA	1.03
CGCATAGTGA	1.02

Sequence	switch fluorescence ratio
CTAACGCACA	1.4
TCGGTACCGT	0.99
CTACAATCTT	1.13
ATGTAAACTC	0.944
ATAAGCTCAA	1.03
CGATACATAT	1.09
ACGGGAACCA	1.04
TTAATACCGA	1.02
GGTTATAGCG	0.989
ACATATAGCG	0.958
GAATCTGCG	0.971
TCTGGGAAGC	0.982
CGGCATCTGT	0.992
TAAGTGGACT	1
GTCAGTTCGC	0.99
TGTGGAATGG	0.97
TCGTCTAAAA	1.17
TCATACTTAT	0.982
ACTTCCGAGG	4.53
ACTATCGTCC	1.03
TCACCGATTA	1.08
ACGATGACGA	1.01
AGAACTGGGA	1.01
CAGGAGTCAC	1.12
TGAACGCAAG	1.73
GGCATATTTA	1

Sequence	switch fluorescence ratio
TTATAAGCGG	0.981
AATGAGGT	1.04
GTAGGCGGA	0.995
TATTCGTTTA	1
TTTAGAAAG	0.987
GTGCTTACTC	1.3
ATCACTCAT	1.01
CTATTTAAAA	0.987
CGTGTTGGGA	1.01
ACCGAGAAGT	1.01
ACATAGTACA	1.04
TGTCGAAATA	0.977
GGCGGTACGT	0.974
TGAGCTTCGG	0.983
ACCAGACCTA	1.14
GTATTTAGAG	0.987
CAGGCGCTAC	5.09
TTCCTCTTGT	1.02
TGGGCACGC	1.02
ATTGGGAACA	1.02
AAACATTGCT	1.11
ATCCGAAAA	1.06
GGCATGATGC	0.974
AGAATAGGTT	0.985
GTTTTTCCGG	0.998
ATGCCGCCTT	0.968

Sequence	switch fluorescence ratio
CATTTGAAG	0.965
AGGCTGTCGT	0.975
CTCAGTCGAG	1.03
TCGGGATTAA	0.986
CAATATTCAC	1.04
TACATAGTGC	1.03
CCCGCCTAGC	2.06
GTAATCAGTG	0.971
GTAATTACGA	1
CTTTATGAGG	1.02
TTTAGCACAC	2.07
GGGCGCCACT	0.964
TATCGATCTT	0.983
AACTGGCCTC	1.1
ATATGTGATC	0.956
TCAATACTAC	1.89
TGGGCCAAAT	1.07
AACTGCGAGG	1
CGACCCCGAA	1.12
ACTTGTGATG	0.981
ATTTCTTTTA	0.979
CAAGGTACGC	1.08
GCCTTGGGGT	0.971
TTTTTCTGTG	0.995
CTATGTAGCC	0.966
GAACGTAGA	1

Sequence	switch fluorescence ratio
GCATTATACC	1.14
GGCCTAACCG	1.09
GCAGACAATC	1.95
GCCCAGAA	1.03
TTTGCGGGAA	0.977
GATATTAATA	0.995
GCTGCATCCG	1.32
AGGCTAACGT	0.979
GTGTCCGTGT	1.01
GCAGCTATGT	1.08
CGGTGATAGG	1.04
ATAGTGATT	0.994
GCATTGGCAA	1.01
GCAACATAAC	1.2
AACACCTGCG	1.1
AAGTCTTTTG	1.02
CTGATGATGG	0.989
AGTTCATTTG	0.974
ATTGGCTCGA	0.988
